Test results from PubChem BioAssay AID1645882 (National Center for Advancing Translational Sciences (NCATS), 2021).
The whole screen tested about 16,000 compounds, of which about 120 (0.75%) were called active. Roughly 4% stayed inconclusive and do not appear here. Calls come from the whole dose curve; as a rule, active = well fitted inhibition curve with a large enough effect; inconclusive = small, poorly fitted or top-dose-only effect; inactive = no such curve, though single readings can be large or run the other way. This is one part of the list.
Note: nearly all actives have a fitted effect of over 75% in size.

These molecules were tested against Rap guanine nucleotide exchange factor 3 (Homo sapiens) (UniProt O95398) (assay: Validation qHTS for antagonist of cAMP-regulated guanine nucleotide exchange factor 3 (EPAC1)). Details: EPAC1 Rap1B-BODIPY-GDP exchange, fluorescence; series mostly up to 150 µM; activity change, negative = inhibition: at the top concentration.
Sequence of UniProt O95398 (O95398 whole entry, looked up): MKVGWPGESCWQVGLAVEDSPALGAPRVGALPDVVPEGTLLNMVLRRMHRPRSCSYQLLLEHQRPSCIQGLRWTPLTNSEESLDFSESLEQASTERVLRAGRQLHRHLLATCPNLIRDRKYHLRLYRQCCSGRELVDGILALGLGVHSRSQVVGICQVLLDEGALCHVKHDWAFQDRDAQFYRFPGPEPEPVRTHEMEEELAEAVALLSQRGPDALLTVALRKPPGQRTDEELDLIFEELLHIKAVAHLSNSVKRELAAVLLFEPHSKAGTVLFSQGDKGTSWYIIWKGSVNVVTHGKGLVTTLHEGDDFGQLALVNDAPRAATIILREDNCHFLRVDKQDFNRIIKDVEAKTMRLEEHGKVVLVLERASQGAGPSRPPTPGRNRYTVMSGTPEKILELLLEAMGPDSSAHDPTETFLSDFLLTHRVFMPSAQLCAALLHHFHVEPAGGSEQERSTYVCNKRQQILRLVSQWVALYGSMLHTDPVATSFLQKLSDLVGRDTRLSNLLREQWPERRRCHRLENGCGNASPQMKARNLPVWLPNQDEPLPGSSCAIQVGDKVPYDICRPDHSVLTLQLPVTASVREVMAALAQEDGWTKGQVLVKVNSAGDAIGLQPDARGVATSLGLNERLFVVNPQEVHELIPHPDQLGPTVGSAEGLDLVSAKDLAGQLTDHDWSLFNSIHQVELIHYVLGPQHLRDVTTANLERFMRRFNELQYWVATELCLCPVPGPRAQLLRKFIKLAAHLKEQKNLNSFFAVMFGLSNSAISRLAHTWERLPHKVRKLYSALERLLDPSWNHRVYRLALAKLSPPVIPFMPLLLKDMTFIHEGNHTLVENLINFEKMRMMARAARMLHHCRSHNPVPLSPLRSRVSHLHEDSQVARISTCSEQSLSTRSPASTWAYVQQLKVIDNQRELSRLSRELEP
Text: Assay Provider (PI): Xiaodong Cheng Ph.D.
The University of Texas Medical Branch, […], TX
In multi-cellular eukaryotic organisms, the effects of cAMP are transduced by two ubiquitously-expressed intracellular cAMP receptors, the classic protein kinase A/cAMP-dependent protein kinase (PKA/cAPK) and the more recently discovered exchange protein directly activated by cAMP/cAMP-regulated guanine nucleotide exchange factor (EPAC/cAMP-GEF). Both PKA and EPAC are ubiquitously expressed in all tissues, and an increase in intracellular cAMP levels will lead to the activation of both PKA and EPAC. Therefore, careful dissections of the individual role and relative contribution of EPAC and PKA within the overall cAMP signaling in various model systems are critical for further elucidating the mechanism of cAMP signaling. To date no EPAC-specific antagonists and agonist, as well as isoform-specific agonists have been reported, and developing EPAC-specific pharmacological probes to determine the physiological functions that EPAC play in the overall cAMP-mediated signaling remains a major challenge within the research field. Furthermore, identified regulators of EPAC may lead to new mechanism-based therapeutic strategies specifically targeting the EPAC / cAMP-signaling components as EPAC has been implicated to play important roles in major human pathological conditions such as diabetes, heart disease, and cancer.
This qHTS will be used to screen the Molecular Libraries Small Molecule Repository (MLSMR) as a concentration-titration series using the NCGC unique quantitative screening (qHTS) platform to find activators for EPAC1. In addition, this assay will also be used as a counterscreen for the EPAC2 qHTS. This fluorescent based assay is developed and validated for EPAC1 that measures exchange using EPAC effector Rap1 complex with BODIPY-GDP, a GDP analog with a tethered fluorophores. Activators are identified by monitoring the change in fluorescence signal as the exchanged free BODIPY-GDP has a reduced fluorescence compared to Rap1-bound BODIPY-GDP. Increase in signal (activation) is the desired outcome for the EPAC1 agonist while no activity in this assay is desired for the EPAC2 agonist counterscreen.
[1] de Rooij, J., Zwartkruis, F. J., Verheijen, M. H., Cool, R. H., Nijman, S. M., Wittinghofer, A., and Bos, J.L. (1998) Nature 396, 474-477.
Briefly, three uL of reagents (100 nM EPAC1, 250 nM RAP1B-BODIPY-GDP, 50 uM GDP) were dispensed into a 1536-well Greiner black solid-bottom medium binding assay plate. Controls and test compounds (23 nL) were transferred to the plate via a Kalypsys pin tool equipped with a 1536-pin array. The plates were centrifuged at 1,000 rpm for 15 seconds followed by 5 minute incubation at room temperature. The assay plates were read at 5 minute intervals for 30 minutes in the ViewLux plate reader using 480nm excitation and 540nm emission filters. The results were normalized to the […] positive control ATA and DMSO.
In the case of `CC(C)=CCn1cnc2c1c(=O)n(C)c(=O)n2C`, the “activity change, negative = inhibition” value is reported as inactive: 18.9%. `CN(C)CCCSc1ccccc1NC(=O)/C=C\c1ccccc1` was tested, and the “activity change, negative = inhibition” value was inactive: 9.49%. In the case of `COc1ccccc1-c1nc(NCc2ccccc2)c2ccccc2n1`, the “activity change, negative = inhibition” value is reported as inactive: 16.4%. With `Cc1ncc2c(c1CNS(=O)(=O)N(C)C)CCN(C(=O)/C=C/c1ccccc1F)C2` the “activity change, negative = inhibition” value was inactive: 9.07%. For `O=C(O)[C@@H]1C[C@@H](C(=O)O)N1`, the activity change, negative = inhibition was “inactive”. In the case of `Fc1ccc(Nc2ccnc(-c3ccccc3C(F)(F)F)n2)cc1`, the “activity change, negative = inhibition” value is reported as inactive: -23.8%. `COc1ccc(-c2nc3cnc(OC)nc3n(CCC#N)c2=O)cc1` was tested, and the “activity change, negative = inhibition” value was inactive: -8.56%. In the case of `C/C=C(\C)C(=O)O[C@H]1C[C@@]2(C)CCC(C(C)C)C2(O)CC[C@@]1(C)O` (some centres not stated), the “activity change, negative = inhibition” value is reported as inactive: 5.42%. `CNc1cc(NS(=O)(=O)c2ccc(N)cc2)nc(NC)n1` was tested, and the activity change, negative = inhibition was “inactive”. In the case of `FC(F)(F)c1ccccc1-c1cc(N2CCNCC2)ncn1`, the “activity change, negative = inhibition” value is reported as inactive: 19.8%. For `CC(=O)OCC1OC(n2c(Br)nc3c(=O)[nH]c(N)nc32)C(OC(C)=O)C1OC(C)=O` (configuration not stated), the “activity change, negative = inhibition” value was inactive: 11.9%. In the case of `CC(C)(C)CC(=O)OCC(=O)[C@@]12OC(C)(C)O[C@@H]1C[C@H]1[C@@H]3CCC4=CC(=O)C=C[C@]4(C)[C@@]3(F)[C@@H](O)C[C@@]12C`, the “activity change, negative = inhibition” value is reported as inactive: 26.8%. `CCN1C(=O)CC(CC(=O)N2CCC(c3nc4ccc(F)cc4[nH]3)CC2)(c2ccccc2C)C1=O` (configuration not stated) was tested, and the “activity change, negative = inhibition” value was inactive: -9.42%. `COc1ccc(Oc2ncc3nc(-c4ccc(OC)cc4)c(=O)n(Cc4cccs4)c3n2)cc1` was tested, and the “activity change, negative = inhibition” value was inactive: 23.6%. With `CS(=O)(=O)N1CCC[C@@]2(CCN(C(c3ccccc3)c3ccccc3)C2)C1` the “activity change, negative = inhibition” value was inactive: -3.49%. `Cc1ccc(S(=O)(=O)/C=C\C#N)cc1` was tested, and the “activity change, negative = inhibition” value was inactive: 13.2%. For `CC(C)NC(=O)N1CCC2(CC1)CCN(S(C)(=O)=O)CC2`, the “activity change, negative = inhibition” value was inactive: 4.91%. `Cc1c(C(=O)NCCCc2ccncc2)cnn1-c1nccc(-c2ccccc2F)n1` was tested, and the “activity change, negative = inhibition” value was inactive: 20.5%. `Cc1ccccn1` was tested, and the “activity change, negative = inhibition” value was inactive: 5.43%. `NS(=O)(=O)c1ccc(C(=O)O)cc1` was tested, and the “activity change, negative = inhibition” value was inactive: 21.3%. `Cc1noc(C)c1-c1cncnc1NCCN1CCOCC1` was tested, and the “activity change, negative = inhibition” value was inactive: 19%. `CCCCCCCCCCCCC/C=C/[C@@H](O)[C@H](CO)N(C)C` was tested, and the activity change, negative = inhibition was inactive: 14% [at 15.3 µM]. `O=C1CC[C@@H](CN(Cc2cccnc2)C2CCN(c3ccc(NC(=O)c4cnccn4)cc3)CC2)N1` was tested, and the “activity change, negative = inhibition” value was inactive: -4.84%. For `CCNc1ncc2nc(-c3cccs3)c(=O)n(Cc3cccc(OC)c3)c2n1`, the “activity change, negative = inhibition” value was inactive: 5.8%. `Cc1cccc(CNc2ccnc(-c3ccoc3)n2)c1` was tested, and the “activity change, negative = inhibition” value was inactive: 17.2%. `Cc1ncc2c(c1CNC(=O)c1cncs1)CCN(C(=O)c1cccc(-c3cccc(F)c3)c1)C2` was tested, and the “activity change, negative = inhibition” value was inactive: 6.39%. With `OCl` the “activity change, negative = inhibition” value was inactive: 9%. With `CCC1CN(CCNC(=O)c2ccc3c(c2)OCCO3)Cc2cc(OC)ccc2O1` (configuration not stated) the “activity change, negative = inhibition” value was inactive: 13.7%. With `O=C(Oc1ccccc1)N1CCC2(CC1)CN(c1ccccn1)C2` the “activity change, negative = inhibition” value was inactive: -1.95%. For `O=C(c1csnn1)N1CCC[C@@]2(CCN(c3ccccn3)C2)C1`, the “activity change, negative = inhibition” value was inactive: 2.05%. For `CC(=O)c1ccc2oc3ccccc3c(=O)c2c1`, the “activity change, negative = inhibition” value was inactive: -1.3%. `CCN(CC)CCn1c(=O)c(Cc2ccc(OC)cc2)nc2ccccc21` was tested, and the “activity change, negative = inhibition” value was inactive: 31%. In the case of `COc1cc(OC)c2nc(-c3cc4c(c(OC)c3)OCCN(Cc3cn(C)nc3C)C4)cc(C)c2c1`, the “activity change, negative = inhibition” value is reported as inactive: 7.66%. `Cc1cc2c(c(-c3ccc(Cl)cc3)c1)OC(CNC(=O)Cc1c(C)noc1C)C2` (configuration not stated) was tested, and the “activity change, negative = inhibition” value was inactive: 2.29%. In the case of `CCOc1ccccc1C(N)=O`, the “activity change, negative = inhibition” value is reported as inactive: 2.6%. For `CSc1nnc(CCNC(=O)/C=C/c2cccc(F)c2)n1-c1ccc(F)cc1`, the “activity change, negative = inhibition” value was inactive: -0.359%. In the case of `CN(C)c1ncc2nc(-c3cc(F)cc(F)c3)c(=O)n(CCc3ccccc3)c2n1`, the “activity change, negative = inhibition” value is reported as inactive: -15.3%. In the case of `COc1ccccc1-c1cncnc1N1CCN(C)CC1`, the “activity change, negative = inhibition” value is reported as inactive: 3.1%. In the case of `COC(=O)N1CCC2(CC1)CN(C(c1ccccc1)c1ccccc1)C2`, the “activity change, negative = inhibition” value is reported as inactive: -2.72%. `COc1cc(C(=S)N2CCOCC2)ccc1O` was tested, and the “activity change, negative = inhibition” value was inactive: 4.23%. `O=C1OC(c2ccc(O)cc2)(c2ccc(O)cc2)c2ccccc21` was tested, and the activity change, negative = inhibition was “inactive”. With `O=S1(=O)CCOCCCN1Cc1ccc(F)cc1` the “activity change, negative = inhibition” value was inactive: 13.6%. With `COc1ccc2c(C)cc(=O)oc2c1` the “activity change, negative = inhibition” value was inactive: 14.3%. For `C=C[C@@H]1c2cc(C)ccc2N(S(=O)(=O)c2ccc(C)cc2)[C@H](c2ccc(C(C)(F)F)cc2)C1(C#N)C#N`, the “activity change, negative = inhibition” value was inactive: 5.8%. `CCn1c(-c2cccc(OC)c2)nc2cc(NC(C)=O)cc(C(=O)N3CCCC(C(C)=O)C3)c21` (configuration not stated) was tested, and the “activity change, negative = inhibition” value was inactive: -2.63%. With `O=C(Nc1cccc(F)c1)N1CC[C@@]2(CCCN(C(=O)c3ccncc3)C2)C1` the “activity change, negative = inhibition” value was inactive: 16.6%. In the case of `O=C(C[n+]1ccnc2ccccc21)c1ccc(Br)cc1`, the “activity change, negative = inhibition” value is reported as inactive: 19.9%. In the case of `CC(C)c1c(C(=O)N(C)C2CCN(C)CC2)cnn1-c1nccc(-c2ccco2)n1`, the “activity change, negative = inhibition” value is reported as inactive: 12.2%. With `O=C(Nc1cccc(F)c1)N1CC[C@@]2(CCCN(C(=O)c3cc(C(F)(F)F)cc(C(F)(F)F)c3)C2)C1` the “activity change, negative = inhibition” value was inactive: -15%. In the case of `COc1ccc(/C=N/NC(=O)c2ccncc2)cc1OC`, the “activity change, negative = inhibition” value is reported as inactive: 15.6%. For `COc1ccc(O)c(CN2CCOc3c(cc(-c4cccc(OC)n4)cc3OC)C2)c1`, the “activity change, negative = inhibition” value was inactive: 10.1%. `CC(C)(O)CCC(O)[C@@](C)(O)C1CC[C@]2(O)C3=CC(=O)C4CC(O)C(O)C[C@]4(C)C3CC[C@]12C` (some centres not stated) was tested, and the “activity change, negative = inhibition” value was inactive: -23.7%.
